# Measurements from the supplement of paper PMC8728848.
# This is one part of the list.
# B1: Gal 8 (Mus musculus), Q9JL15 (protein)
# chain: MGGSHHHHHHGMASMLSLNNLQNIIYNPIIPYVGTITEQLKPGSLIVIRGHVPKDSERFQVDFQLGNSLKPRADVAFHFNPRFKRSSCIVCNTLTQEKWGWEEITYDMPFRKEKSFEIVFMVLKNKFQVAVNGRHVLLYAHRISPEQIDTVGIYGKVNIHSIGFRFSSASALPHTLGDLQSMETSALGLTQINRENIQKPGKLQLSLPFEARLNASMGPGRTVVIKGEVNTNARSFNVDLVAGKTRDIALHLNPRLNVKAFVRNSFLQDAWGEEERNITCFPFSSGMYFEMIIYCDVREFKVAINGVHSLEYKHRFKDLSSIDTLSVDGDIRLLDVRSW
# Assays:
# Experiment in all cases: glycan array binding signal (z-score within array); higher = stronger binding
# Details in all cases: glycan notation: IUPAC condensed, linker removed
# [1] = molecular target: Gal(b1-3)[Fuc(a1-4)]GlcNAc(b1-3)Gal(b1-4)[Fuc(a1-3)]GlcNAc
# How it was run: (§1)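 Columns mapping to the same glycan were averaged after glycan names were converted to IUPAC-condensed notation. The data come from 3228 arrays in the Consortium for Functional Glycomics database, limited to those with an available protein sequence. Binding is reported as a within-array Z-score averaged across arrays of one protein sequence and across linkers.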
# [2] = molecular target: Gal(b1-3)[Fuc(a1-4)]GlcNAc(b1-6)GalNAc
# How it was run: as §1
# [3] = molecular target: Gal(b1-3)[GlcNAc(b1-6)]GalNAc
# How it was run: as §1
# [4] = molecular target: Gal(b1-3)[Neu5Ac(a2-6)]GalNAc
# How it was run: as §1
# [5] = molecular target: Gal(b1-3)[Neu5Ac(a2-6)]GlcNAc(b1-4)Gal(b1-4)Glc
# How it was run: as §1
# [6] = molecular target: Gal(b1-3)[Neu5Ac(b2-6)]GalNAc
# How it was run: as §1
# [7] = molecular target: Gal(b1-4)Gal
# How it was run: as §1
# [8] = molecular target: Gal(b1-4)GalNAc(a1-3)[Fuc(a1-2)]Gal(b1-4)GlcNAc
# How it was run: as §1
# [9] = molecular target: Gal(b1-4)GalNAc(b1-3)[Fuc(a1-2)]Gal(b1-4)GlcNAc
# How it was run: as §1
# [10] = molecular target: Gal(b1-4)Glc
# How it was run: as §1
# [11] = molecular target: Gal(b1-4)Glc6S
# How it was run: as §1
# [12] = molecular target: Gal(b1-4)GlcNAc
# How it was run: as §1
# [13] = molecular target: Gal(b1-4)GlcNAc(a1-6)Gal(b1-4)GlcNAc
# How it was run: as §1
# [14] = molecular target: Gal(b1-4)GlcNAc(b1-2)Man
# How it was run: as §1
# [15] = molecular target: Gal(b1-4)GlcNAc(b1-2)Man(a1-3)Man(b1-4)GlcNAc(b1-4)GlcNAc
# How it was run: as §1
# [16] = molecular target: Gal(b1-4)GlcNAc(b1-2)Man(a1-3)[Gal(b1-4)GlcNAc(b1-2)Man(a1-6)]Man(b1-4)GlcNAc(b1-4)GlcNAc
# How it was run: as §1
# [17] = molecular target: Gal(b1-4)GlcNAc(b1-2)Man(a1-3)[Gal(b1-4)GlcNAc(b1-2)Man(a1-6)]Man(b1-4)GlcNAc(b1-4)[Fuc(a1-6)]GlcNAc
# How it was run: as §1
# [18] = molecular target: Gal(b1-4)GlcNAc(b1-2)Man(a1-3)[Gal(b1-4)GlcNAc(b1-2)Man(a1-6)][Gal(b1-4)GlcNAc(b1-4)]Man(b1-4)GlcNAc(b1-4)[Fuc(a1-6)]GlcNAc
# How it was run: as §1
# [19] = molecular target: Gal(b1-4)GlcNAc(b1-2)Man(a1-3)[Gal(b1-4)GlcNAc(b1-2)Man(a1-6)][GlcNAc(b1-4)]Man(b1-4)GlcNAc(b1-4)[Fuc(a1-6)]GlcNAc
# How it was run: as §1
# [20] = molecular target: Gal(b1-4)GlcNAc(b1-2)Man(a1-3)[GlcNAc(b1-2)Man(a1-6)]Man(b1-4)GlcNAc(b1-4)GlcNAc
# How it was run: as §1
# [21] = molecular target: Gal(b1-4)GlcNAc(b1-2)Man(a1-3)[GlcNAc(b1-4)][Gal(b1-4)GlcNAc(b1-2)Man(a1-6)]Man(b1-4)GlcNAc(b1-4)GlcNAc
# How it was run: as §1
# [22] = molecular target: Gal(b1-4)GlcNAc(b1-2)Man(a1-3)[Man(a1-6)]Man(b1-4)GlcNAc(b1-4)GlcNAc
# How it was run: as §1
# [23] = molecular target: Gal(b1-4)GlcNAc(b1-2)Man(a1-6)Man(b1-4)GlcNAc(b1-4)GlcNAc
# How it was run: as §1
# [24] = molecular target: Gal(b1-4)GlcNAc(b1-2)Man(a1-6)[GlcNAc(b1-2)Man(a1-3)]Man(b1-4)GlcNAc(b1-4)GlcNAc
# How it was run: as §1
# [25] = molecular target: Gal(b1-4)GlcNAc(b1-2)Man(a1-6)[Man(a1-3)]Man(b1-4)GlcNAc(b1-4)GlcNAc
# How it was run: as §1
# [26] = molecular target: Gal(b1-4)GlcNAc(b1-2)[Gal(b1-4)GlcNAc(b1-4)]Man(a1-3)[Gal(b1-4)GlcNAc(b1-2)Man(a1-6)]Man(b1-4)GlcNAc(b1-4)GlcNAc
# How it was run: as §1
# [27] = molecular target: Gal(b1-4)GlcNAc(b1-2)[Gal(b1-4)GlcNAc(b1-4)]Man(a1-3)[Gal(b1-4)GlcNAc(b1-2)[Gal(b1-4)GlcNAc(b1-6)]Man(a1-6)]Man(b1-4)GlcNAc(b1-4)GlcNAc
# How it was run: as §1
# [28] = molecular target: Gal(b1-4)GlcNAc(b1-2)[Gal(b1-4)GlcNAc(b1-4)]Man(a1-3)[GlcNAc(b1-4)][Gal(b1-4)GlcNAc(b1-2)Man(a1-6)]Man(b1-4)GlcNAc(b1-4)GlcNAc
# How it was run: as §1
# [29] = molecular target: Gal(b1-4)GlcNAc(b1-2)[Gal(b1-4)GlcNAc(b1-4)]Man(a1-3)[GlcNAc(b1-4)][Gal(b1-4)GlcNAc(b1-2)[Gal(b1-4)GlcNAc(b1-6)]Man(a1-6)]Man(b1-4)GlcNAc(b1-4)GlcNAc
# How it was run: as §1
# [30] = molecular target: Gal(b1-4)GlcNAc(b1-2)[Gal(b1-4)GlcNAc(b1-6)]Man(a1-6)[Gal(b1-4)GlcNAc(b1-2)Man(a1-3)]Man(b1-4)GlcNAc(b1-4)GlcNAc
# How it was run: as §1
# [31] = molecular target: Gal(b1-4)GlcNAc(b1-2)[Gal(b1-4)GlcNAc(b1-6)]Man(a1-6)[Gal(b1-4)GlcNAc(b1-2)Man(a1-3)]Man(b1-4)GlcNAc(b1-4)[Fuc(a1-6)]GlcNAc
# How it was run: as §1
# [32] = molecular target: Gal(b1-4)GlcNAc(b1-2)[Gal(b1-4)GlcNAc(b1-6)]Man(a1-6)[GlcNAc(b1-4)][Gal(b1-4)GlcNAc(b1-2)Man(a1-3)]Man(b1-4)GlcNAc(b1-4)GlcNAc
# How it was run: as §1
# [33] = molecular target: Gal(b1-4)GlcNAc(b1-2)[Gal(b1-4)GlcNAc(b1-6)]Man(a1-6)[GlcNAc(b1-4)][Gal(b1-4)GlcNAc(b1-2)[Gal(b1-4)GlcNAc(b1-4)]Man(a1-3)]Man(b1-4)GlcNAc(b1-4)[Fuc(a1-6)]GlcNAc
# How it was run: as §1
# [34] = molecular target: Gal(b1-4)GlcNAc(b1-3)Gal(b1-3)GalNAc
# How it was run: as §1
# [35] = molecular target: Gal(b1-4)GlcNAc(b1-3)Gal(b1-3)GlcNAc
# How it was run: as §1
# [36] = molecular target: Gal(b1-4)GlcNAc(b1-3)Gal(b1-4)Glc
# How it was run: as §1
# [37] = molecular target: Gal(b1-4)GlcNAc(b1-3)Gal(b1-4)GlcNAc
# How it was run: as §1
# [38] = molecular target: Gal(b1-4)GlcNAc(b1-3)Gal(b1-4)GlcNAc(b1-2)Man(a1-3)[Gal(b1-4)GlcNAc(b1-3)Gal(b1-4)GlcNAc(b1-2)Man(a1-6)]Man(b1-4)GlcNAc(b1-4)GlcNAc
# How it was run: as §1
binder,measurement,setting,value
B1,glycan array binding signal (z-score),[1],-0.533
same,glycan array binding signal (z-score),[2],-0.515
same,glycan array binding signal (z-score),[3],-0.016
same,glycan array binding signal (z-score),[4],-0.433
same,glycan array binding signal (z-score),[5],0.03
same,glycan array binding signal (z-score),[6],-0.548
same,glycan array binding signal (z-score),[7],-0.543
same,glycan array binding signal (z-score),[8],1.24
same,glycan array binding signal (z-score),[9],-0.488
same,glycan array binding signal (z-score),[10],-0.371
same,glycan array binding signal (z-score),[11],-0.157
same,glycan array binding signal (z-score),[12],-0.117
same,glycan array binding signal (z-score),[13],0.071
same,glycan array binding signal (z-score),[14],-0.063
same,glycan array binding signal (z-score),[15],0.07
same,glycan array binding signal (z-score),[16],0.201
same,glycan array binding signal (z-score),[17],0.189
same,glycan array binding signal (z-score),[18],0.128
same,glycan array binding signal (z-score),[19],-0.123
same,glycan array binding signal (z-score),[20],-0.043
same,glycan array binding signal (z-score),[21],-0.126
same,glycan array binding signal (z-score),[22],0.172
same,glycan array binding signal (z-score),[23],0.18
same,glycan array binding signal (z-score),[24],-0.108
same,glycan array binding signal (z-score),[25],0.101
same,glycan array binding signal (z-score),[26],0.415
same,glycan array binding signal (z-score),[27],-0.094
same,glycan array binding signal (z-score),[28],0.241
same,glycan array binding signal (z-score),[29],0.292
same,glycan array binding signal (z-score),[30],0.011
same,glycan array binding signal (z-score),[31],0.073
same,glycan array binding signal (z-score),[32],0.011
same,glycan array binding signal (z-score),[33],0.128
same,glycan array binding signal (z-score),[34],0.144
same,glycan array binding signal (z-score),[35],0.46
same,glycan array binding signal (z-score),[36],0.196
same,glycan array binding signal (z-score),[37],0.28
same,glycan array binding signal (z-score),[38],0.557
